# The other results are listed elsewhere or left out. At the low end of the ranking the order means little.
# Target: GST-SBP-SLBP (stem-loop binding protein) (UniProt Q14493)
# Experiment: targeted RNA Bind-n-Seq;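 note: DESeq read counts versus GST-SBP nonspecific binding control pulldown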
# Settings: RBNS binding buffer: 25 mM Tris pH 7.5, 150 mM KCl, 3 mM MgCl2, 0.1% Tween, 0.5 mg/mL BSA, 1 mM DTT; 27 nM protein, 750 pM RNA pool; temperature not stated; high values mean tight binding
row,Sequence,binding signal (log2 fold change)
1,GGUCACGUCUCAAUCAACUCAUCUUCAGGAGUUUCCUCCUGCAUACUCAACAGCUCGCAGUCAAG,-0.00804
2,GGUCACGUCUCAAUCAACUCUAUCUCAGGAGUUUACUCCUGUUUUUUCAACAGCUCGCAGUCAAG,0.0772
3,GGUCACGUCUCAAUCAACUCAAUCCCCAGGGAAACCCCUGGCAUACUCAACAGCUCGCAGUCAAG,-0.082
4,GGUCACGUCUCAAUCAACUCUUCGUCAGGAGUUUUCUCCUGUUUACUCAACAGCUCGCAGUCAAG,0.0786
5,GGUCACGUCUCAAUCAACUCUUUCGAGGGGGGGAAAACCCCUUUACCCUCAUCAUCAACAGCUCGCAGUCAAG,0.165
6,GGUCACGUCUCAAUCAACUCUUUCCCAGGAGUUUUCUCCUGCAUUUUCAACAGCUCGCAGUCAAG,-0.0132
7,GGUCACGUCUCAAUCAACUCUUCGCCCAGGGAAAGCCCUGGUUUAUUCAACAGCUCGCAGUCAAG,-0.122
8,GGUCACGUCUCAAUCAACUCAUUCUCAGGAGUUUCCUCCUGCUUACUCAACAGCUCGCAGUCAAG,0.144
9,GGUCACGUCUCAAUCAACUCAUACGAGGGGGGGAAAACCCCUUUACCCUCUAAAUCAACAGCUCGCAGUCAAG,0.199
10,GGUCACGUCUCAAUCAACUCAUUUUCCAGGGAAAUCCCUGGUUAUCUCAACAGCUCGCAGUCAAG,-0.0405
11,GGUCACGUCUCAAUCAACUCAGUCUCCAGGGAAAUCCCUGGCUAUUUCAACAGCUCGCAGUCAAG,0.139
12,GGUCACGUCUCAAUCAACUCUAUUCCCAGGGAAAGCCCUGGCUUUCUCAACAGCUCGCAGUCAAG,-0.0194
13,GGUCACGUCUCAAUCAACUCAACUUCCAGGGAAACCCCUGGUUAUUUCAACAGCUCGCAGUCAAG,-0.217
14,GGUCACGUCUCAAUCAACUCAACUCCCAGGGAAACCCCUGGUAUUCUCAACAGCUCGCAGUCAAG,-0.449
15,GGUCACGUCUCAAUCAACUCAUCCCCCAGGGAAAUCCCUGGUUAACUCAACAGCUCGCAGUCAAG,0.0437
16,GGUCACGUCUCAAUCAACUCUAUUUCCAGGGAAAACCCUGGUUUACUCAACAGCUCGCAGUCAAG,0.256
17,GGUCACGUCUCAAUCAACUCAUCCCCAGGAGUUUUCUCCUGCUAUUUCAACAGCUCGCAGUCAAG,0.208
18,GGUCACGUCUCAAUCAACUCAUCGCCAGGAGUUUCCUCCUGUUAACUCAACAGCUCGCAGUCAAG,0.101
19,GGUCACGUCUCAAUCAACUCUUAAGAGGGGGGGAAAACCCCUUUGCCCUCAAAAUCAACAGCUCGCAGUCAAG,0.118
20,GGUCACGUCUCAAUCAACUCAUCCCCCAGGGAAAUCCCUGGUUUUCUCAACAGCUCGCAGUCAAG,-0.202
21,GGUCACGUCUCAAUCAACUCACUAGAGGGGGGGAAAACCCCUUUACCCUCGUUUUCAACAGCUCGCAGUCAAG,-0.124
